According to article PMC9724675:
These are yes or no findings as the source states them, for the method shown. In cells and extracts the contact can be indirect. Some results given as binding are weak or reduced against the parent protein; the word gives no strength. Where a sequence is shown, tags or fusion partners need not be part of it.

The chains behind the UniProt entries cited, without tags or fusion partners.
UniProt O95069: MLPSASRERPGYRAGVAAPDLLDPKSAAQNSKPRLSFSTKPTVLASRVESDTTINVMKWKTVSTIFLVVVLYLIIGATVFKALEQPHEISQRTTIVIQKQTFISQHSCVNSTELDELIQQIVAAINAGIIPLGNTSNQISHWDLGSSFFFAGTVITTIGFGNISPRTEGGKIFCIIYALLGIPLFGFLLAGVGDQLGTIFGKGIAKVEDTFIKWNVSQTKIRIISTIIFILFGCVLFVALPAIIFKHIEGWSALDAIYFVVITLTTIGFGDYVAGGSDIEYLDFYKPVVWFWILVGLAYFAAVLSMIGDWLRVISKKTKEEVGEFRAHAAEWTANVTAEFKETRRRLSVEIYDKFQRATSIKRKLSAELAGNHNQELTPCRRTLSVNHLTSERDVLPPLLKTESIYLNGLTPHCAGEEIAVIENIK

T1: AC9-VN and AC9-VC (AC9 fused to the N-terminal or C-terminal half of Venus) (human), O60503
T1 chain: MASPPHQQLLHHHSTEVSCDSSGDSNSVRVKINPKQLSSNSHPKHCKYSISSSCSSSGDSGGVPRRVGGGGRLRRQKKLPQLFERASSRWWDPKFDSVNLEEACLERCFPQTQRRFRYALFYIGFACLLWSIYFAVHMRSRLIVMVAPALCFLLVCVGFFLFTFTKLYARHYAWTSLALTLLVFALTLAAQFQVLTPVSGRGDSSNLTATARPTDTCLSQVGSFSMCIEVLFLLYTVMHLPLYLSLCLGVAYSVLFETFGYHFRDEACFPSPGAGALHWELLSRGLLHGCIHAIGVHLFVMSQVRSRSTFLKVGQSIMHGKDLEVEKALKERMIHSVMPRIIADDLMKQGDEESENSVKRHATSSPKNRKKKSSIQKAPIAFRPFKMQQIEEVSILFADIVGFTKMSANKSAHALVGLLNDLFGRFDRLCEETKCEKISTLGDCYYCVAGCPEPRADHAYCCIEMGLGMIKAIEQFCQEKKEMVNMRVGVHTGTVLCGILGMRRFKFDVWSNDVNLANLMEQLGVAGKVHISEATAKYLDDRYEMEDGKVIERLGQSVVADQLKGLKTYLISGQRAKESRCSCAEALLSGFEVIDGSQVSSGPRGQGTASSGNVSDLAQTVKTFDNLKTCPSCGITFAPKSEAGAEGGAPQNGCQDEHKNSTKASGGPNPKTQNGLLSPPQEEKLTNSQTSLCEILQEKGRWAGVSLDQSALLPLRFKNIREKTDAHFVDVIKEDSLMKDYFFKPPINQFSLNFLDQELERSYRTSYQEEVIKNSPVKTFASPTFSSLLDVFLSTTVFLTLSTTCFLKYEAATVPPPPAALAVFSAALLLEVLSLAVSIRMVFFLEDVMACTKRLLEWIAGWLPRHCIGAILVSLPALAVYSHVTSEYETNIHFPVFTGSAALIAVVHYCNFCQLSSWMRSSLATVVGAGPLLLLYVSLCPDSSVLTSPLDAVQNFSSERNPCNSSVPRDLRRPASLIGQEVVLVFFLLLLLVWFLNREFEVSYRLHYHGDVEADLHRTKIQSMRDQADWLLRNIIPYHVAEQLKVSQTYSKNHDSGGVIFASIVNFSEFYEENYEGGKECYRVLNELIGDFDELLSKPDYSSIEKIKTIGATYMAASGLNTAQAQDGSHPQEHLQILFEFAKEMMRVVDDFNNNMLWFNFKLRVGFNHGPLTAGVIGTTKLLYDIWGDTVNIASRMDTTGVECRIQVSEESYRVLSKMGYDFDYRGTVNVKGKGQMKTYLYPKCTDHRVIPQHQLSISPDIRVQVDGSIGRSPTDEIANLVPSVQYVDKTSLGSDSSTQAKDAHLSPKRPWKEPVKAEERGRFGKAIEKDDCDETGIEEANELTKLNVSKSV

T2: Flag-tagged AC9 (adenylyl cyclase 9) (human) (UniProt O60503)
T2 sequence: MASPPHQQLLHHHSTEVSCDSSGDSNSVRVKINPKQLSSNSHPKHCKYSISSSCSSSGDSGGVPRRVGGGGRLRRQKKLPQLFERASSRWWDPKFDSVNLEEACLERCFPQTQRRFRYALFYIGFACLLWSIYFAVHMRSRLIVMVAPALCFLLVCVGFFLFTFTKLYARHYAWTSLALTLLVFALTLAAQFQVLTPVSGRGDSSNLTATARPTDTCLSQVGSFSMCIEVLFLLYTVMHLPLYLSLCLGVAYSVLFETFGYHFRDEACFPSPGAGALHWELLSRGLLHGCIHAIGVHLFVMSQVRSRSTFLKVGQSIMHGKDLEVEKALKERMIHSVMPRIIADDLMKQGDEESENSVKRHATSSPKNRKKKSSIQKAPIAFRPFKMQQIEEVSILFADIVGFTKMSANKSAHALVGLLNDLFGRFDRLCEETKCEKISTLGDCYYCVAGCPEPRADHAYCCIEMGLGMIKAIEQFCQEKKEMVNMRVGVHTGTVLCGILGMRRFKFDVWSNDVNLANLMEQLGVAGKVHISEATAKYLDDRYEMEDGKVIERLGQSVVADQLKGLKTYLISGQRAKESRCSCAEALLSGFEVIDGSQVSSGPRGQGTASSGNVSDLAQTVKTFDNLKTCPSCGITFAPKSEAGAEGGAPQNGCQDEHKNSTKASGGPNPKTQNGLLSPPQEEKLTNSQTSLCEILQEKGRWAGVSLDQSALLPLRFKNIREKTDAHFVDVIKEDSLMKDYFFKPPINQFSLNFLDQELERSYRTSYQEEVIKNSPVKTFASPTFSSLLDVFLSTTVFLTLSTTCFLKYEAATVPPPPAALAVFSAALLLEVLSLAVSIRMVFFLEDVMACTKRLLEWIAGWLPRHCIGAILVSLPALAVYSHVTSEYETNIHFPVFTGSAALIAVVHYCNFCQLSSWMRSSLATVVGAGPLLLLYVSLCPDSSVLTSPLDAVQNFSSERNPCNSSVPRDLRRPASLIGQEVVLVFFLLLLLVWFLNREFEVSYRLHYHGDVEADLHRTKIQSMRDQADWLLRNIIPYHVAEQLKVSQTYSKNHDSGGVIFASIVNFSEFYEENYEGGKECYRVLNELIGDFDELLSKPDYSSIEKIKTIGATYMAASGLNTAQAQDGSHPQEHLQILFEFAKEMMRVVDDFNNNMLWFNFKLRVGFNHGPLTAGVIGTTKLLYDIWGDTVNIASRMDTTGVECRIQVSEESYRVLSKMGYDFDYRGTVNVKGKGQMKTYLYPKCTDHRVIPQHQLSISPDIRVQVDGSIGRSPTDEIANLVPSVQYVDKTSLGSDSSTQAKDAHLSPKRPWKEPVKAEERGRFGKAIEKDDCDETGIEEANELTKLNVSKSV

T3: POPDC1-VN and POPDC1-VC (mouse POPDC1 fused to a half of Venus) (mouse) (UniProt Q9ES83)
T3 sequence: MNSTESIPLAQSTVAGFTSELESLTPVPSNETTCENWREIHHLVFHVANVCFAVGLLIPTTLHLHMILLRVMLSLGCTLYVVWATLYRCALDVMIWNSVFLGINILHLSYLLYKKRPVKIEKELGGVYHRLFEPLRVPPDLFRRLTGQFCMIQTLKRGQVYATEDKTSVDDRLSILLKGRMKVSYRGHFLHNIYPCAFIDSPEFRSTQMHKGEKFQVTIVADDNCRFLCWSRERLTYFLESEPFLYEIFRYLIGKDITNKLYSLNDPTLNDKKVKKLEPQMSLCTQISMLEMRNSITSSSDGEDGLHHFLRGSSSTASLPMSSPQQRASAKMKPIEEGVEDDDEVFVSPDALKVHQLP


Experiments:
[1] = molecular target: T1, AC9-VN and AC9-VC (AC9 fused to the …); test: split reporter; BiFC (split Venus, VN and VC) in HEK293 cells, which express endogenous POPDC1 and POPDC2; plate reader and live-cell imaging; with or without ISO (10 μM, 10 min, 37°C; dose-response); settings: remark: other sources report otherwise
[2] = molecular target: T2, Flag-tagged AC9 (adenylyl cyclase 9) (human); test: co-IP; HEK293 lysates, immunoprecipitation of Flag-AC9 with anti-FLAG, western blot with anti-MYC and anti-FLAG
[3] = molecular target: YFP-tagged TREK-1 (human) (UniProt O95069); test: co-IP; HEK293 lysates, immunoprecipitation of YFP-tagged TREK-1 (anti-GFP or TREK-1 antibodies), western blot; with or without overexpressed POPDC1-Myc or AKAP79; with or without ISO (10 μM, 10 min)
[4] = molecular target: T3, POPDC1-VN and POPDC1-VC (mouse POPDC1 fused to a half of Venus) (mouse); test: split reporter; BiFC (split Venus, VN and VC) in HEK293 cells, which express endogenous POPDC1 and POPDC2; plate reader and live-cell imaging; with or without ISO (10 μM, 10 min, 37°C; dose-response)

Row | binding [2] | binding [3] | Binder | further results
1 | binds | – | POPDC2-Myc (protein, UniProt Q9ES82 1-367) MSANGSSVAQLLWQPPVCRSWKPDVEGAVYHLANCFLLMGFMAGSGVYGCFYLFGILGPGYLCCVLWGWFDACGLDIVLWNVLLTVACLLQLAQLVYRVRVNTLPEEFNLLYRTLCLPLQVPLQVYKEIVHCCHEQVLTLATEQTYAVEGETPINRLSLLLSGRVRVSQDGQFLHYIFPYQFMDSPEWESLHPSEEGTFQVTLTAETECSYISWPRKNLYLLLNRERYISRLFSALLGYDISEKLYTLNDKLFAKFGLRFDIRLPSLYHVLSPSASDGEPESEKDDEEALEAAVSPAQARPICIVPTPPCSAPPATTNFPVPLPRARMPRMPRPDSGNLASRRPLQNSSQVMSRSQAPLAPIHTPEL | –
2 | – | binds | endogenous POPDC1 of HEK293 cells (protein, UniProt Q8NE79 1-360) MNYTESSPLRESTAIGFTPELESIIPVPSNKTTCENWREIHHLVFHVANICFAVGLVIPTTLHLHMIFLRGMLTLGCTLYIVWATLYRCALDIMIWNSVFLGVNILHLSYLLYKKRPVKIEKELSGMYRRLFEPLRVPPDLFRRLTGQFCMIQTLKKGQTYAAEDKTSVDDRLSILLKGKMKVSYRGHFLHNIYPCAFIDSPEFRSTQMHKGEKFQVTIIADDNCRFLCWSRERLTYFLESEPFLYEIFRYLIGKDITNKLYSLNDPTLNDKKAKKLEHQLSLCTQISMLEMRNSIASSSDSDDGLHQFLRGTSSMSSLHVSSPHQRASAKMKPIEEGAEDDDDVFEPASPNTLKVHQLP | –

The remaining lines, values behind:

Row | Binder | binding [2] | binding [3] | further results
3 | AC9-VN and AC9-VC (AC9 fused to the N-terminal or C-terminal half of Venus), O60503 1-1353 (enzyme) MASPPHQQLLHHHSTEVSCDSSGDSNSVRVKINPKQLSSNSHPKHCKYSISSSCSSSGDSGGVPRRVGGGGRLRRQKKLPQLFERASSRWWDPKFDSVNLEEACLERCFPQTQRRFRYALFYIGFACLLWSIYFAVHMRSRLIVMVAPALCFLLVCVGFFLFTFTKLYARHYAWTSLALTLLVFALTLAAQFQVLTPVSGRGDSSNLTATARPTDTCLSQVGSFSMCIEVLFLLYTVMHLPLYLSLCLGVAYSVLFETFGYHFRDEACFPSPGAGALHWELLSRGLLHGCIHAIGVHLFVMSQVRSRSTFLKVGQSIMHGKDLEVEKALKERMIHSVMPRIIADDLMKQGDEESENSVKRHATSSPKNRKKKSSIQKAPIAFRPFKMQQIEEVSILFADIVGFTKMSANKSAHALVGLLNDLFGRFDRLCEETKCEKISTLGDCYYCVAGCPEPRADHAYCCIEMGLGMIKAIEQFCQEKKEMVNMRVGVHTGTVLCGILGMRRFKFDVWSNDVNLANLMEQLGVAGKVHISEATAKYLDDRYEMEDGKVIERLGQSVVADQLKGLKTYLISGQRAKESRCSCAEALLSGFEVIDGSQVSSGPRGQGTASSGNVSDLAQTVKTFDNLKTCPSCGITFAPKSEAGAEGGAPQNGCQDEHKNSTKASGGPNPKTQNGLLSPPQEEKLTNSQTSLCEILQEKGRWAGVSLDQSALLPLRFKNIREKTDAHFVDVIKEDSLMKDYFFKPPINQFSLNFLDQELERSYRTSYQEEVIKNSPVKTFASPTFSSLLDVFLSTTVFLTLSTTCFLKYEAATVPPPPAALAVFSAALLLEVLSLAVSIRMVFFLEDVMACTKRLLEWIAGWLPRHCIGAILVSLPALAVYSHVTSEYETNIHFPVFTGSAALIAVVHYCNFCQLSSWMRSSLATVVGAGPLLLLYVSLCPDSSVLTSPLDAVQNFSSERNPCNSSVPRDLRRPASLIGQEVVLVFFLLLLLVWFLNREFEVSYRLHYHGDVEADLHRTKIQSMRDQADWLLRNIIPYHVAEQLKVSQTYSKNHDSGGVIFASIVNFSEFYEENYEGGKECYRVLNELIGDFDELLSKPDYSSIEKIKTIGATYMAASGLNTAQAQDGSHPQEHLQILFEFAKEMMRVVDDFNNNMLWFNFKLRVGFNHGPLTAGVIGTTKLLYDIWGDTVNIASRMDTTGVECRIQVSEESYRVLSKMGYDFDYRGTVNVKGKGQMKTYLYPKCTDHRVIPQHQLSISPDIRVQVDGSIGRSPTDEIANLVPSVQYVDKTSLGSDSSTQAKDAHLSPKRPWKEPVKAEERGRFGKAIEKDDCDETGIEEANELTKLNVSKSV | – | – | binding [1]: binds
4 | POPDC1-VN and POPDC1-VC (mouse POPDC1 fused to a half of Venus) (protein, UniProt Q9ES83 1-358) MNSTESIPLAQSTVAGFTSELESLTPVPSNETTCENWREIHHLVFHVANVCFAVGLLIPTTLHLHMILLRVMLSLGCTLYVVWATLYRCALDVMIWNSVFLGINILHLSYLLYKKRPVKIEKELGGVYHRLFEPLRVPPDLFRRLTGQFCMIQTLKRGQVYATEDKTSVDDRLSILLKGRMKVSYRGHFLHNIYPCAFIDSPEFRSTQMHKGEKFQVTIVADDNCRFLCWSRERLTYFLESEPFLYEIFRYLIGKDITNKLYSLNDPTLNDKKVKKLEPQMSLCTQISMLEMRNSITSSSDGEDGLHHFLRGSSSTASLPMSSPQQRASAKMKPIEEGVEDDDEVFVSPDALKVHQLP | – | – | binding [4]: binds
5 | POPDC1-Myc (Popeye domain-containing protein 1, Myc-tagged) (protein, UniProt Q9ES83 1-358) MNSTESIPLAQSTVAGFTSELESLTPVPSNETTCENWREIHHLVFHVANVCFAVGLLIPTTLHLHMILLRVMLSLGCTLYVVWATLYRCALDVMIWNSVFLGINILHLSYLLYKKRPVKIEKELGGVYHRLFEPLRVPPDLFRRLTGQFCMIQTLKRGQVYATEDKTSVDDRLSILLKGRMKVSYRGHFLHNIYPCAFIDSPEFRSTQMHKGEKFQVTIVADDNCRFLCWSRERLTYFLESEPFLYEIFRYLIGKDITNKLYSLNDPTLNDKKVKKLEPQMSLCTQISMLEMRNSITSSSDGEDGLHHFLRGSSSTASLPMSSPQQRASAKMKPIEEGVEDDDEVFVSPDALKVHQLP | binds | binds | –
